# Source: the RNAGym collection of RNA variant scans (doi:10.7554/elife.90254)
# Read counts are not given, so values of variants with three or more changes are uncertain.
# B1: LINE1-mini (parent)
# chain: GGCAGAGCUCAACACAGCGUGGCAAAGUGGCUGUGGCUAGACUGCC
# Variants of: B1
# Experiment: self-cleavage, relative activity (ratio to wild type); higher = more cleavage; in vitro, sequencing; the parent is a self-cleaving ribozyme
row,Variant,self-cleavage
1,GGCAGAGCUCAACACAGCCUGGCGAAGGGGCUGUGGCUAGACUGCC,0.05
2,GGCAGAGCUCAACACAGCCUGGCUAAGUGGCUGUGGCUAGGCUGCC,0.06
3,GGCAGAGCUCAACACAGCCUGGCUAAGUGUCUGCGGCUAGACUGCC,0.04
4,GGCAGAGCUCAACACAGCCUGGCACAGUGGCUGUGGCUAGACUGGA,0.05
5,GGCAGAGCUCAACACAGCCUGGCACAAUUGCUGUGGCGAGACUGCC,0.06
6,GGCAGAGCUCAACACAGCCUGGCACAAUGCCUGUGGCUAGACUGAC,0.08
7,GGCAGAGCUCAACACAGCCUGGCAGAGUGGCUGUGCCUAGACUGCC,0.19
8,GGCAGAGCUCAACACAGCCUGGCAUAGUGGCUGUGGUUAGACUGAC,0.07
9,GGCAGAGCUCAACACAGCCUGGCAUACUGGCUGUGGCUAGACUGCC,0.23
10,GGCAGAGCUCAACACAGCCUGGCAACGUGGCUGUGGCAAGACUGCC,0.03
11,GGCAGAGCUCAACACAGCCUGGCAAGGUGGCUGUGGCUAGACCGCC,0.01
12,GGCAGAGCUCAACACAGCCUGGCAAUGUGGCUGUGGUUAGACUGCC,0.01
13,GGCAGAGCUCAACACAGCCUGGCAAUGUGGCUGUGGCUACACUGCC,0.05
14,GGCAGAGCUCAACACAGCCUGGCAAUGUGGCUGUGGCUAGACUACA,0.01
15,GGCAGAGCUCAACACAGCCUGGCAAUGUGGCUGUGGCUAGACGGUC,0.01
16,GGCAGAGCUCAACACAGCCUGGCAAAGUGGCUGUGGCUUCACUGCC,0.12
17,GGCAGAGCUCAACACAGCCUGGAAAAGUGGGUGUGGCUAGUCUGCC,0.08
18,GGCAGAGCUCAACACAGCCUGGAAAAGUGGCUGUGGCAAGACUGCC,0.1
19,GGCAGAGCUCAACACAGCCUGGAAAAGUGGCUGUGGCGAGACUGCC,0.06

row,Variant,self-cleavage
1,GGCAGAGCUCAACACAGCCUGGGCAAGCGGCUGUAGCUAGACUGCC,0.19
2,GGCAGAGCUCAACACAGCCUGGUACAGUGGCUCUGGCAAGACUGCC,0.02
3,GGCAGAGCUCAACACAGCCUGGUAAAGUGGCUGUUGCUAGAGUGCC,0.03
4,GGCAGAGCUCAACACAGCCUGGCAAAGUGGAUGUGGCUAGACUACC,0.09
5,GGCAGAGCUCAACACAGCCUGGCAAAGUGGAGCUGGCUAGACUGUC,0.03
6,GGCAGAGCUCAACACAGCCUGGCAAAGUGGGUGUGGCUAGAUUGCC,0.11
7,GGCAGAGCUCAACACAGCCUGGCAAAGUGGUGGUGGCUAGACUGCC,0.17
8,GGCAGAGCUCAACACAGCCUGGCAAAGUGGCUGUGGGUAGAGUGCC,0.06
9,GGCAGAGCUCAACACAGCCUGGCAAAGUGGCUGUGGGUAGACUGAC,0.01
10,GGCAGAGCUCAACACAGCCUGGCAAAGUGGCUGUGGCUAGAGUGUC,0.02
11,GGCAGAGCUCAACACAGCCUGGCAAAGUGGCUGUGGCUAGAUUGUA,0
12,GGCAGAGCUCAACACAGCCUAGCAAAUUGGCUGUGGCUAGUCCGCC,0.18
13,GGCAGAGCUCAACACAGCCUCGGAAAGCGGCUGUGGCUAGACUGCC,0.1
14,GGCAGAGCUCAACACAGCCUCGCAAAGUGGAUGUUGCUAGACUGCC,0.03
15,GGCAGAGCUCAACACAGCCUCGCAAAGUGGCUGUGGCAAGACUGCC,0.04
16,GGCAGAGCUCAACACAGCCUUGCCAAGUGGCUGUGGCUAGACUGCC,0.27
17,GGCAGAGCUCAACACAGCCUUGCAACGUGGCUGUGGCUACACUGCC,0.13
18,GGCAGAGCUCAACACAGCCUGACAAAGUGGCUGUGGCUGGACUGCC,0.05
19,GGCAGAGCUCAACACAGCCUGACAAAGUGGCUGUGGCUAGCCUGCA,0

row,Variant,self-cleavage
1,GGCAGAGCUCAACACAGCCUGAAAAAGUGACUGUGGCUAGACUGCC,2.77
2,GGCAGAGCUCAACACAGCCUGACAAAGUGGCUGUGGCUAGACUGGC,0.13
3,GGCAGAGCUCAACACAGCCUGACAAAGUGGCUGUGGCUAGACUGCU,0.5
4,GGCAGAGCUCAACACAGCCUGCCGAAGUGGCUGUGGCUAGACUGCC,0.39
5,GGCAGAGCUCAACACAGCCUGCCAAAGUGGCUGUGGCUAGUCUGCC,0.09
6,GGCAGAGCUCAACACAGCCUGCCAAAGUGGCUGUGACUAGACUGCC,0.06
7,GGCAGAGCUCAACACAGCCUGUGAAAGUGGCUGUGGCUAGACUGCC,0.61
8,GGCAGAGCUCAACACAGCCUGUUAAAGUGGCUGCGGCUAGACUAAC,0.09
9,GGCAGAGCUCAACACAGCCUGUCAAAGUGGCUGUGGCUAGAAUGCC,0.05
10,GGCAGAGCUCAACACAGCCUGUCAAAGUGGCUGUGUCUAGACUGCC,0.03
11,GGCAGAGCUCAACACAGCCUGGCAAAAUGGCUUUGGCUAGACUGGC,0.04
12,GGCAGAGCUCAACACAGCCUGGCAAACUGACUGUGGCUACACUGCC,0.09
13,GGCAGAGCUCAACACAGCCUGGCAAACUGUCUGUGGCUCGACUGCU,0.36
14,GGCAGAGCUCAACACAGCCUGGCAAACUGGCUCUGGCUAGACUGCC,0.18
15,GGCAGAGCUCAACACAGCCUGGCAAAUUGGCUGUGACUACACUGCC,0.16
16,GGCAGAGCUCAACACAGCCUGGCAAAUUGGCUGUGGCUAUCCUGUC,0.07
17,GGCAGAGCUCAACACAGCCUGGCAAAUCGGCUGAGGCUAGACUGCC,0.18
18,GGCAGAGCUCAACACAGCCUGGCAAAUUGGCCGUGGCGAGGCUGCC,0.01
